Experimental data from the DeepSol protein solubility set.

Assay: soluble on expression in E. coli; label from the status in PepcDB or PDB records

With “QVTLKESGPGILQPSQTLSLTCSFSGFSLSTYGMGVGWIRQPSGKGLEWLAHIWWDDVKRYNPALKSRLTISKDTSGSQVFLKIASVDTSDTATYYCARMGSDYDVWFDYWGQGTLVTVSAASTKGPSVFPLAPSSKSTSGGTAALGCLVKDYFPEPVTVSWNSGALTSGVHTFPAVLQSSGLYSLSSVVTVPSSSLGTQTYICNVNHKPSNTKVDKKVEPKSCHHHHHH” the “soluble on expression in E. coli” value was “soluble”.
With “MGSDKIHHHHHHMITIKKGLDLPIAASPAQVIHNGNTVNEVAMLGEEYVGMRPSMKVREGDLVKKGQVLFEDKKNAGVVFTAPASGTVVAINRGEKRVLQSVVIKVEGDEQITFTRYEAAQLASLSAEQVRANLIDAGLWIAFRTRPFSKVPAVDATPASIFVNAMDTNPLSADPAVIINEYKNDFEYGLTVLIRLGVKVNLVKAAGVNIPTVDGITVHEFAGKHPAGLVGTHIHFIDPVNLTKTVWHLNYQDVIAFGKLFTTGELFTDRVVALAGPQVKTPRLVRTRLGANLSQLTTGELNVGENRIISGSVLSGATASGPVDFLGRYALQVSVLLEGCEKELLGWVMPGSDKYSITRTVLGHFRKKLFNFTTAVHGGERAMVPIGAYERVMPLDIIPTLLLRDLAAGDTDSAQNLGCLELDEEDLALCTYVCPGKNNYGPMLRTALDKIEKEG” the “soluble on expression in E. coli” value was “not soluble”.
With “MVTVYDVPADKLIQKTAEKLKEMNIGVPEWVDFVKTGVSRERRPDQDDWWYIRCASILRKIYIYGPVGVSRLRTAYGGRKNRGHEPEHFYKGSGNIIRKALQELEKLGLVEKTPEGRVVTPKGRSFLDNIAKEVRDEIINEIPALAKY” the “soluble on expression in E. coli” value was “not soluble”.
With “MAHHHHHHMGTLEAQTQGPGSMRLIIRPTYEDISKWAANHVAQKINEFSPTKENPFILGLPTGSSPIGMYKNLIELNKNKKISFQNVITFNMDEYIGIEENHPESYHSFMWNNFFSHIDIKKENINILNGNASNLKKECEEYEKKIKSFGGIMLFVGGIGPDGHIAFNEPGSSLTSRTRIKTLTQDTIIANSRFFEGDVNKVPKNALTVGIGTIMDSQEVLIIVNGHNKARALKHAIEKGVNHMWTISALQLHKNAIIVSDKNATYELKVGTVEYFNDIERKNFNNDLK” the “soluble on expression in E. coli” value was “soluble”.
With “MKEVAKPLQERFFIPHEIKVMGRWSTEDVEVKDPSLKPYINLEPRLLPHTHGRHAKKHFGKANVHIVERLINKVMRSGGSHYKVAGHFMRREHRSLNSKKVRAYEVVKEAFKIIEKRTGKNPIQVLVWAIENAAPREDTTSVMFGGIRYHVAVDISPLRRLDVALRNIALGASAKCYRTKMSFAEALAEEIILAANKDPKSYAYSKKLEIERIAESSR” the “soluble on expression in E. coli” value was “soluble”.
With “MNIRATRVGEQMKKELSDIISRRLKDPRIGFVTVTDVRVTGDLQQAKVYISVLGDDKQRENTLKALEKAKGFIRSEIGQRIRLRKTPEIFFEIDETIEYGSRIEQLIRQISSDDHPAKEADGEPNNG” the “soluble on expression in E. coli” value was “not soluble”.
For “MMQSYDYDSDDSQTTSDEHINSRHSSRSDTASSSSSFTPQIIFNPRPHVVKVVKSETGFGFNVKGQVSEGGQLRSLNGQLYAPLQHVSAVLRRGAADQAGLRKGDRILEVNGLNVEGSTHRKVVDLIKNGGDELTMIVISVEDPDMDRFDYGEESSMAYGHDYSENRSLPVTIPSYNTVQDSLERYTVFNIHMAGRQLGSRRYSEFVELHLALKKHFYDYCFPQLPGKWPFKLSEQQLDSRRRGLEQYLEKICTIRVIAESELVQKFLMECDPMCEVEIRLMLPDGSPITIRTRRSITSSLFFTSAQRRLKMSREGAAACSIFELLDNSFERKVSESESVHELYTHNYSSASSSCLLLRKFIFDIDRERALCKRDMVFKQFCFVQAIADLHSGKVVTSRKSYQLRAIQNEENMDELLEMARELEGYNQVTFPPSVCILRKRRQTVIMVVRFANLLLKCPEDGNSMEIDWSRIKDFRVCDEATAFSFEYIRDEVGDSEQEQTEPRKTKYVRLETGFAEYMAECFAEIQFERQAGSDWKRDQNRVAATPEPLPETIEPQPTTHKIQFEKRILEQHRDCID”, the “soluble on expression in E. coli” value was “not soluble”.
With “MGSCIGKEDPPPGATSPVHTSSTLGRESLPSHPRIPSIGPIAASSSGNTIDKNQNISQSANFVALFQYDARTDDDLSFKKDDILEILNDTQGDWWFARHKATGRTGYIPSNYVAREKSIESQPWYFGKMRRIDAEKCLLHTLNEHGAFLVRDSESRQHDLSLSVRENDSVKHYRIRQLDHGGYFIARRRPFATLHDLIAHYQREADGLCVNLGAPCAKSEAPQTTTFTYDDQWEVDRRSVRLIRQIGAGQFGEVWEGRWNVNVPVAVKKLKAGTADPTDFLAEAQIMKKLRHPKLLSLYAVCTRDEPILIVTELMQENLLTFLQRRGRQCQMPQLVEISAQVAAGMAYLEEMNFIHRDLAARNILINNSLSVKIADFGLARILMKENEYEARTGARFPIKWTAPEAANYNRFTTKSDVWSFGILLTEIVTFGRLPYPGMTNAEVLQQVDAGYRMPCPAGCPVTLYDIMQQCWRSDPDKRPTFETLQWKLEDLFNLDSSEYKEASINF” the “soluble on expression in E. coli” value was “not soluble”.
